IC50 is the fitted dose that halves viability relative to control wells, and lower means more sensitive; a fit beyond the top or the lowest dose is shown as a bound at that dose. AUC, from the same fit, is the share of area under the viability curve across the 256-fold dose range; the more sensitive the line, the further below 1. A top dose marked as inferred was calculated from the reported fits. For some of these results: Where an entry number is given, a second screen of the drug exists; the two often differ.
What was measured:
Test in all cases: Viability of human cancer cell lines after 72 h of drug (GDSC screen)
Shikonin = compound: CC(C)=CC[C@@H](O)C1=CC(=O)c2c(O)ccc(O)c2C1=O [Shikonin]; details: top dose 16 µM; top dose inferred
Description: (§1)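 Human cancer cell lines in 384-well plates, medium with 10% serum, drug for 72 h over a 256-fold dose range (nine 2-fold or five 4-fold steps up to the top dose). Adherent lines were fixed and stained with the nucleic acid dye Syto60, suspension lines read with resazurin; signal relative to control wells, capped at 0 and 100%. One two-parameter sigmoid per drug and line, fitted in a mixed model over all curves with the slope shared within a line.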

HG-5-113-01 = compound: CNC(=O)c1ccc(Nc2cc(Nc3ccccc3S(=O)(=O)C(C)C)c3cc[nH]c3n2)nc1 [HG-5-113-01]; details: top dose 10 µM; top dose inferred
Description: as §1

BMS-536924 = compound: Cc1cc(N2CCOCC2)cc2[nH]c(-c3c(NC[C@@H](O)c4cccc(Cl)c4)cc[nH]c3=O)nc12 [BMS-536924]; details: top dose 4 µM; screen: GDSC drug entry 1091; top dose inferred
Description: as §1

BIRB 0796 = compound: Cc1ccc(-n2nc(C(C)(C)C)cc2NC(=O)Nc2ccc(OCCN3CCOCC3)c3ccccc23)cc1 [BIRB 0796]; details: top dose 10 µM; top dose inferred
Description: as §1

SB-525334 = compound: Cc1cccc(-c2[nH]c(C(C)(C)C)nc2-c2ccc3nccnc3c2)n1 [SB-525334]; details: top dose 20 µM; top dose inferred
Description: as §1

VX-702 = compound: NC(=O)c1ccc(N(C(N)=O)c2c(F)cccc2F)nc1-c1ccc(F)cc1F [VX-702]; details: top dose 2 µM; top dose inferred
Description: as §1

Olaparib = compound: O=C(c1cc(Cc2n[nH]c(=O)c3ccccc23)ccc1F)N1CCN(C(=O)C2CC2)CC1 [Olaparib]
Description: as §1

Wee1 inhibitor 681640 = compound: O=C1NC(=O)c2c1c(-c1ccccc1Cl)cc1[nH]c3ccc(O)cc3c21 [Wee1 inhibitor 681640]; details: top dose 2 µM; top dose inferred
Description: as §1

[1] = top dose 5 µM, screen: GDSC drug entry 1017, top dose inferred
[2] = top dose 10 µM, screen: GDSC drug entry 1495

| Cell Line | AUC (Shikonin) | IC50 (Shikonin) [µM] | AUC (HG-5-113-01) | IC50 (HG-5-113-01) [µM] | AUC (BMS-536924) | IC50 (BMS-536924) [µM] | AUC (BIRB 0796) | IC50 (BIRB 0796) [µM] | AUC (SB-525334) | IC50 (SB-525334) [µM] | AUC (VX-702) | IC50 (VX-702) [µM] | AUC (Olaparib; [1]) | IC50 (Olaparib; [1]) [µM] | AUC (Olaparib; [2]) | IC50 (Olaparib; [2]) [µM] | AUC (Wee1 inhibitor 681640) | IC50 (Wee1 inhibitor 681640) [µM] |
| --- | --- | --- | --- | --- | --- | --- | --- | --- | --- | --- | --- | --- | --- | --- | --- | --- | --- | --- |
| BICR10 (head and neck, adherent) | 0.715 | 4.5 | 0.851 | 9.54 | 0.955 | > 4 | 0.888 | > 10 | 0.984 | > 20 | 0.972 | > 2 | 0.97 | > 5 | 0.948 | > 10 | 0.753 | 0.759 |
| BT-483 (breast, adherent) | 0.74 | 9.22 | 0.96 | > 10 | 0.934 | > 4 | 0.94 | > 10 | 0.74 | 11.6 | 0.976 | > 2 | 0.978 | > 5 | 0.974 | > 10 | 0.933 | > 2 |
| C32 (melanoma, adherent) | 0.652 | 2.73 | 0.762 | 3.81 | 0.878 | > 4 | 0.96 | > 10 | 0.96 | > 20 | 0.987 | > 2 | 0.987 | > 5 | 0.964 | > 10 | 0.962 | > 2 |
| C-4-I (cervix, adherent) | 0.555 | 1.43 | 0.819 | 6.31 | 0.953 | > 4 | 0.945 | > 10 | 0.972 | > 20 | 0.986 | > 2 | 0.986 | > 5 |  |  | 0.979 | > 2 |
| CAL-12T (non-small cell lung carcinoma, adherent) | 0.617 | 2.18 | 0.791 | 5.09 | 0.873 | > 4 | 0.971 | > 10 | 0.973 | > 20 | 0.978 | > 2 | 0.969 | > 5 | 0.95 | > 10 | 0.897 | > 2 |
| CAL-27 (head and neck, adherent) | 0.751 | 5.34 | 0.608 | 1.24 | 0.854 | 3.27 | 0.982 | > 10 | 0.982 | > 20 | 0.921 | > 2 | 0.904 | > 5 | 0.896 | > 10 | 0.975 | > 2 |
| CAL-33 (head and neck, adherent) | 0.544 | 1.31 | 0.672 | 1.89 | 0.865 | 3.54 | 0.917 | > 10 | 0.961 | > 20 | 0.95 | > 2 | 0.959 | > 5 | 0.951 | > 10 | 0.861 | 1.7 |
| CAL-62 (thyroid, adherent) | 0.481 | 0.892 | 0.653 | 1.62 | 0.945 | > 4 | 0.987 | > 10 | 0.988 | > 20 | 0.988 | > 2 | 0.97 | > 5 | 0.895 | > 10 | 0.959 | > 2 |
| CCK-81 (large intestine, adherent) | 0.764 | 5.48 | 0.836 | 6.06 | 0.985 | > 4 | 0.987 | > 10 | 0.975 | > 20 | 0.989 | > 2 | 0.99 | > 5 | 0.989 | > 10 | 0.942 | > 2 |
| CHP-212 (neuroblastoma, adherent) | 0.554 | 1.39 | 0.563 | 0.915 | 0.709 | 0.923 | 0.975 | > 10 | 0.984 | > 20 | 0.927 | > 2 | 0.917 | > 5 | 0.933 | > 10 | 0.952 | > 2 |
| CHSA0108 (chondrosarcoma, adherent) | 0.519 | 1.14 | 0.712 | 2.75 | 0.826 | 2.95 | 0.975 | > 10 | 0.805 | 12 | 0.956 | > 2 | 0.918 | > 5 | 0.955 | > 10 | 0.964 | > 2 |
| CHSA8926 (chondrosarcoma, adherent) | 0.855 | > 16 | 0.782 | 6.15 | 0.92 | > 4 | 0.969 | > 10 | 0.98 | > 20 | 0.98 | > 2 | 0.957 | > 5 | 0.911 | > 10 | 0.98 | > 2 |
| COR-L23 (large cell lung carcinoma, adherent) | 0.416 | 0.593 | 0.781 | 4.04 | 0.969 | > 4 | 0.972 | > 10 | 0.967 | > 20 | 0.988 | > 2 | 0.964 | > 5 | 0.946 | > 10 | 0.849 | 1.45 |
| CP50-MEL-B (melanoma, adherent) | 0.59 | 1.76 | 0.728 | 2.76 | 0.835 | 2.59 | 0.988 | > 10 | 0.506 | 1.29 | 0.972 | > 2 | 0.986 | > 5 | 0.987 | > 10 | 0.988 | > 2 |
| CS1 (bone, adherent) | 0.529 | 1.21 | 0.824 | 6.87 | 0.982 | > 4 | 0.935 | > 10 | 0.963 | > 20 | 0.984 | > 2 | 0.934 | > 5 | 0.92 | > 10 | 0.835 | 1.53 |
